# In all, about 360,000 compounds went through this assay and about 16,000 (4.4%) were called active. The shares of active, inactive and inconclusive entries below differ from those in the screen. Calls follow the shape of the dose curve; as a rule, active = well fitted inhibition curve with a large enough effect; inconclusive = small, poorly fitted or top-dose-only effect; inactive = no such curve, though single readings can be large or run the other way. Potencies of inconclusive entries are doubtful fits and often do not repeat.
# Target: Bromodomain adjacent to zinc finger domain protein 2B (Homo sapiens) (UniProt Q9UIF8)
# Assay: qHTS Assay for Inhibitors of BAZ2B; also: nearly all actives have a fitted effect of over 60% in size
# Details: AlphaScreen BAZ2B-H3K14Ac peptide displacement; series mostly up to 114 µM
# Procedure, shortened: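 AlphaScreen displacement of biotin-H3(5-23)K14Ac peptide (50 nM final) from BAZ2B (50 nM final) in PBS pH 7.4, 0.01% Tween-20; complex preformed 30 min RT, then compounds (top 110 uM) 30 min RT, beads 20 min dark.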
# Potency is read from the fitted curve at half-maximal effect; tags tell the direction and shape of the fitted curve.
# Chain of UniProt Q9UIF8 (Q9UIF8 whole entry, looked up, the tested form may be a part): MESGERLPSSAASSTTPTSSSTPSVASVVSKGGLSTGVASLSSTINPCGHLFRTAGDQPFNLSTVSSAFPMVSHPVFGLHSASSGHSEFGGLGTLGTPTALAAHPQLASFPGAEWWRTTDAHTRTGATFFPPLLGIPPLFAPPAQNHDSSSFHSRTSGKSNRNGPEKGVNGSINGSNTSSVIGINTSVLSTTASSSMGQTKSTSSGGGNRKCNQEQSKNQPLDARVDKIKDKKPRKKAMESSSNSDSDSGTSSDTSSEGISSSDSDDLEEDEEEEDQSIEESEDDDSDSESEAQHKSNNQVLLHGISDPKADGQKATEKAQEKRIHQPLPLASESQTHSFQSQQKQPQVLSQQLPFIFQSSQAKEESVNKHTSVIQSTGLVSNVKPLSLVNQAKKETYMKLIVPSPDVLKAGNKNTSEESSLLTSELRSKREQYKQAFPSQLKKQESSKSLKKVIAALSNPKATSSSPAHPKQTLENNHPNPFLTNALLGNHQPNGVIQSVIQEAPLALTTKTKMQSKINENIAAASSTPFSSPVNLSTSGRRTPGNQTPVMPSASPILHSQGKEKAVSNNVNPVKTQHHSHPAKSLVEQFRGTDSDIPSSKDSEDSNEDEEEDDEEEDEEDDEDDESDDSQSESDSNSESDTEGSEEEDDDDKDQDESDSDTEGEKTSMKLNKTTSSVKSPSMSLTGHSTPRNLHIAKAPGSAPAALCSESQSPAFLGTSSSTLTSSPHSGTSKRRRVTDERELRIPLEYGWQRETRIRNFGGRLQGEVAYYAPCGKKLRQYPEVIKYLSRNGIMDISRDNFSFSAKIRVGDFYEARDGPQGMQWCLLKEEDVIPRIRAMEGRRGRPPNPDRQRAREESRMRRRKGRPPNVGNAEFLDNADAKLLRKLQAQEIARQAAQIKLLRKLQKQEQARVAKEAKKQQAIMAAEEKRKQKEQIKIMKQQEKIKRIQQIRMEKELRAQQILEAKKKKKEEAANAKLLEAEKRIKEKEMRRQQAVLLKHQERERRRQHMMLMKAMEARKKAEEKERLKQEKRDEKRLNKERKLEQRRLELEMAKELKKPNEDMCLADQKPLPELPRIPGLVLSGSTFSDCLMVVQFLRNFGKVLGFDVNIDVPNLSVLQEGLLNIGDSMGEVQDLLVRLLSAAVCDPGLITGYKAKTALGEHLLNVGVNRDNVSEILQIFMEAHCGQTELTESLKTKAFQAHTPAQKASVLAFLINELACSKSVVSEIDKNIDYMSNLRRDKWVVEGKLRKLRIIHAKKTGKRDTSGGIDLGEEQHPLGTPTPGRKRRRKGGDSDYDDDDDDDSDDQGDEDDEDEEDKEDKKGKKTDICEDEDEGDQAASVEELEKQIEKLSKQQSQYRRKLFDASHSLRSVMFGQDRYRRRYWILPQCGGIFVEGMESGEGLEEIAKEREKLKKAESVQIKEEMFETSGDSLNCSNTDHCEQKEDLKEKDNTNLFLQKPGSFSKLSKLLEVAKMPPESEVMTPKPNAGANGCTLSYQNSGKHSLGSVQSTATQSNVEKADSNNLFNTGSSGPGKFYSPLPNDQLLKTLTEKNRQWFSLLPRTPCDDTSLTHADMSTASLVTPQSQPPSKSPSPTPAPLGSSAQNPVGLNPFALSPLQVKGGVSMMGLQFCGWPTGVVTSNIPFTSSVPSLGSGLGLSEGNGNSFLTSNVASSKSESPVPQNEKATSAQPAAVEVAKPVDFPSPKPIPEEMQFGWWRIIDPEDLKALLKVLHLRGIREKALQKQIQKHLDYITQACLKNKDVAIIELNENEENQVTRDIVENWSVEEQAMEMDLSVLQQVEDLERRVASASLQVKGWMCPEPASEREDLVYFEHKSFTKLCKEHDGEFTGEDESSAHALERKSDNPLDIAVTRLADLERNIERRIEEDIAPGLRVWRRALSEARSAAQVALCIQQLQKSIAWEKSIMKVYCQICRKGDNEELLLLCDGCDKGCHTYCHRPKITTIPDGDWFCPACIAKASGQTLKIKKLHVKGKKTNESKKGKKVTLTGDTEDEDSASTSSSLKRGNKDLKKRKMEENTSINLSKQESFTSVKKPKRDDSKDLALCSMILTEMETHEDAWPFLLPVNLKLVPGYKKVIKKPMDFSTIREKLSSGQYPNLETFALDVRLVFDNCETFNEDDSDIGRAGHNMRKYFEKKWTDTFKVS
row,SMILES,Potency
1,Cc1cc(Oc2nnnn2-c2ccccc2)ccc1Cl,"inconclusive: 39.8 µM [inhibitor, single point]"
2,Cc1ccc(-c2nc3ccccc3[nH]2)cc1NC(=O)c1ccco1,"inconclusive: 89.1 µM [inhibitor, single point]"
3,N=C1C(c2nc3ccccc3s2)=C(O)CN1c1ccccc1,"inconclusive: 79.4 µM [inhibitor, partial curve]"
4,Cc1ccccc1Nc1nc(NCc2ccco2)c2ccccc2n1,"inconclusive: 39.8 µM [inhibitor, partial curve]"
5,C=CCN(c1ccccc1)S(=O)(=O)c1cccc(C(=O)Nc2cc(C)ccn2)c1,inactive
6,O=C(Oc1ccccc1)c1c(Cl)cccc1P(=O)(O)O,"inconclusive: 89.1 µM [inhibitor, single point]"
7,CCC(C)(C)C1CCC(=NNC(=S)Nc2cccnc2)CC1 (centres undefined),"inconclusive: 28.2 µM [inhibitor, full curve]"
8,CC(C)(C(=O)N[C@H](CO)c1ccccc1)C(=O)N[C@H](CO)c1ccccc1,inactive
9,COc1ccc(NC(=O)CNC(=O)Cc2cccc3ccccc23)c(OC)c1,inactive
10,CN(C)c1ccc(/C=C/C(=O)c2ccccc2)cc1[N+](=O)[O-],active: 14.1 µM
11,O=[N+]([O-])c1ccccc1N/N=C1\CC2CC=CC12 (centres undefined),active: 12.6 µM
12,CC(=O)c1ccccc1NS(=O)(=O)c1cccc2nsnc12,active: 50.1 µM
13,C/C(N)=C(/C#N)C(=O)COC(=O)c1ccc(C#N)cc1,"inconclusive: 89.1 µM [inhibitor, single point]"
14,O=C(CCS(=O)(=O)c1ccc(F)cc1)Nc1nc(-c2ccccn2)cs1,"inconclusive: 39.8 µM [inhibitor, single point]"
15,NC(=O)CN1CCCN(S(=O)(=O)c2ccc(Br)cc2)CC1,inactive
16,CCC(C)Nc1ccc(NC(C)CC)cc1 (centres undefined),active: 35.5 µM
17,COc1cc(NC(=O)CCc2c(C)nc3c(-c4ccc(F)cc4)c(C)nn3c2C)cc(OC)c1OC,inactive
18,COc1ccc(N=NC2=C(O)CC(C)(C)CC2=O)c(OC)c1,"inconclusive: 44.7 µM [inhibitor, partial curve]"
19,CCC(CC)NC(=O)Nc1cccc(C)c1C,"inconclusive: 89.1 µM [inhibitor, single point]"
20,Cc1ccccc1OCCOCCN1CCCCCC1,"inconclusive: 50.1 µM [inhibitor, partial curve]"
21,Oc1cc2c(cc1C(c1ccc(Cl)c(Cl)c1)N1CCCC1)OCO2 (centres undefined),active: 35.5 µM
22,O=C(CNCc1ccco1)Nc1ccc(Oc2ccccc2)cc1,active: 50.1 µM
23,Cc1ccc(S(=O)(=O)Nc2ccc(NC(=O)/C=C/C(=O)O)cc2)cc1,inactive
24,O=C(Cn1nc(-c2ccccc2)c2ccccc2c1=O)Nc1cccnc1,"inconclusive: 35.5 µM [inhibitor, single point]"
25,O=C(NNC(=O)c1nn(-c2ccc(F)cc2)ccc1=O)c1ccccc1Cl,inactive

row,SMILES,Potency
1,Cc1ccc(C)c(N2CCN(C(=O)CCS(=O)(=O)c3cc(Br)cc4c3N(C(=O)C3CC3)CC4)CC2)c1,inactive
2,N=c1n(CC(=O)c2cccc([N+](=O)[O-])c2)c2ccccc2n1Cc1ccccc1,"inconclusive: 79.4 µM [inhibitor, partial curve, poor fit]"
3,O=C1CC(/C=C/c2ccc([N+](=O)[O-])cc2)=Nc2ccccc2N1,"inconclusive: 28.2 µM [inhibitor, full curve, poor fit]"
4,COC(=O)C1C(=O)C(C(=O)c2ccccc2)C(=O)CC1(C)C (centres undefined),"inconclusive: 89.1 µM [inhibitor, single point]"
5,Cc1cccc(C(=O)OCC(=O)Nc2nccs2)c1,inactive
6,COc1cc2nc(NCCc3ccccc3)n3nc(-c4cccnc4)nc3c2cc1OC,"inconclusive: 89.1 µM [inhibitor, single point]"
7,Cc1nnc(NC(=O)CSc2nnc(-c3ccccc3)n2C)s1,inactive
8,COc1ccccc1NC(=O)CSc1n[nH]c(-c2ccccn2)n1,active: 4.47 µM
9,O=[N+]([O-])C1=CC=C2C(=NC3(CCCCC3)N2O)C1=NCCO,active: 50.1 µM
10,COc1cccc(/C=N/NC(=O)CNC(=O)c2cccnc2)c1O,inactive
11,COc1cc2c(cc1OC)C1(Nc3c-2c(Cc2ccccc2)nn3-c2ccccc2)C(=O)Nc2ccccc21 (centres undefined),active: 50.1 µM
12,Clc1ccc(-n2cccc2/C=N/n2cnnc2)cc1,inactive
13,O=C(Nc1nc(-c2ccccc2)cs1)c1ccc(N2CCOCC2)c([N+](=O)[O-])c1,"inconclusive: 8.91 µM [inhibitor, full curve, poor fit]"
14,COc1ccc(N2CCN(C3CCCN(Cc4cccc(C)c4)C3)CC2)cc1 (centres undefined),"inconclusive: 70.8 µM [inhibitor, single point]"
15,Cc1ccc(C2/C(=C(\O)c3ccc4c(c3)OCCO4)C(=O)C(=O)N2Cc2cccnc2)cc1 (centres undefined),inactive
16,Cc1nnc(SCC(=O)NC(C)c2ccccc2)[nH]c1=O (centres undefined),"inconclusive: 89.1 µM [inhibitor, single point]"
17,Cc1ccc(CNC(=O)Cn2nc(N3CCN(c4ccccc4)CC3)ccc2=O)cc1,"inconclusive: 70.8 µM [inhibitor, single point]"
18,CCCn1c2ccccc2c2cnn(CC(=O)N(CC)c3cc(C)ccc3C)c(=O)c21,"inconclusive: 39.8 µM [inhibitor, partial curve]"
19,O=C(O)/C(=C\c1ccc(Br)cc1)c1ccc(S(=O)(=O)N2CCCCC2)s1,"inconclusive: 79.4 µM [inhibitor, single point]"
20,c1ccc(CN2CCN(c3nc(NCc4ccco4)c4ccccc4n3)CC2)cc1,active: 50.1 µM
21,Cc1cc(C(=O)CSc2nnc(-c3ccccc3)n2-c2ccccc2)c(C)n1-c1ncn[nH]1,"inconclusive: 89.1 µM [inhibitor, single point]"
22,COc1ccc(N2CCN(C(=O)c3cc(S(=O)(=O)N4CCCCCC4)ccc3OC)CC2)cc1,"inconclusive: 50.1 µM [inhibitor, partial curve]"
23,Cc1[nH]c2ccccc2c1C1(O)C(=O)N(Cc2ccccc2)c2ccc(Cl)cc21 (centres undefined),"inconclusive: 31.6 µM [inhibitor, partial curve]"
24,CCOC(=O)c1c(C)[nH]c(C)c1C(=O)CSc1nnc(-c2ccncc2)n1Cc1ccccc1,"inconclusive: 100 µM [inhibitor, single point]"
25,Cc1c(Br)c(=O)oc2c(Br)c(O)c(O)cc12,"inconclusive: 89.1 µM [inhibitor, single point]"

row,SMILES,Potency
1,O=C(O)c1cccc(-n2c(O)c(C=C3N=c4ccccc4=N3)sc2=S)c1,inactive
2,O=C(Nc1ccccc1Cl)[C@H](CSCc1ccccc1)N1Cc2ccccc2C1=O,inactive
3,N#CCC(=O)N/N=C/c1ccc(N2N=C(c3ccccc3)CC2c2ccccc2)cc1 (centres undefined),inactive
4,O=C(O)c1ccc(NS(=O)(=O)c2ccc3c(c2)C2C=CCC2C(c2ccccc2F)N3)cc1 (centres undefined),active: 50.1 µM
5,NC(=O)[C@@H]1CCNc2c(I)cc([N+](=O)[O-])cc2C(=O)N[C@@H](CO)C(=O)N[C@@H](Cc2ccc(O)cc2)C(=O)N1,active: 79.4 µM
6,Cc1ccc(Cl)cc1NC(=O)CCCN1C(=O)c2cccnc2C1=O,"inconclusive: 70.8 µM [inhibitor, partial curve]"
7,CC(C)(C)c1ccc(OCCC(=O)OCC(=O)Nc2cccnc2Cl)cc1,inactive
8,N#C/C(=C/c1ccc(N2CCCCCC2)o1)c1cccc(F)c1,"inconclusive: 50.1 µM [inhibitor, partial curve]"
9,Cc1ccc(S(=O)(=O)Nc2ccc(-c3ccc4nncn4n3)cc2)cc1,inactive
10,Cc1ccc(O)c(-c2cc3ccccc3[nH]2)c1,active: 44.7 µM
11,COc1ccc(NC(=O)c2c(Nc3ccccc3)sc(C(=O)c3ccc(F)cc3)c2N)cc1,"inconclusive: 79.4 µM [inhibitor, single point]"
12,O=C(CSc1cccc(C(F)(F)F)c1)NC(=O)NCc1ccco1,active: 50.1 µM
13,COc1ccc(CN(Cc2ccco2)C(=O)COc2ccccc2OC)cc1,inactive
14,Cc1nc(NCc2ccccc2)c2cc[nH]c2n1,"inconclusive: 79.4 µM [inhibitor, single point]"
15,COc1ccc([C@]23Cc4cc(OC)c(OC)cc4C(O2)c2c(c4ccccc4oc2=O)O3)cc1,active: 10 µM
16,CCOc1ccc(C(=O)Oc2c(Sc3ccccc3)c(C)nn2C(C)(C)C)cc1OCC,inactive
17,COC(=O)c1cn(C(=O)c2ccccc2)c2ccccc12,"inconclusive: 22.4 µM [inhibitor, full curve]"
18,COc1ccc(C)c2sc(NC(=O)CCS(=O)(=O)c3ccccc3)nc12,inactive
19,COc1ccc(N2CCN(c3nc4ccccc4nc3NS(=O)(=O)c3ccccc3)CC2)cc1,active: 50.1 µM
20,O=C(O)CCCC(=O)Nc1nc2n(n1)C(c1ccc(F)cc1)CC(c1ccc(Cl)cc1)N2 (centres undefined),active: 50.1 µM
21,Cc1cc(C)n2nc(C(=O)NNC(=O)c3ccccc3)nc2n1,"inconclusive: 79.4 µM [inhibitor, single point]"
22,O=C(NC(=S)Nc1cccc(NC(=O)c2ccccc2)c1)c1cccc([N+](=O)[O-])c1,inactive
23,COc1ccc(CSCC(=O)N/N=C/c2ccc(OCC(=O)N3CCCCC3)cc2)cc1,"inconclusive: 100 µM [inhibitor, single point]"
24,CSCCC(NS(=O)(=O)c1ccc(C)cc1)C(=O)NCCc1c[nH]c2ccccc12 (centres undefined),"inconclusive: 50.1 µM [inhibitor, partial curve]"

# Reference: PubChem BioAssay AID504333 (National Center for Advancing Translational Sciences (NCATS), 2011)
